The record followed here is publication PMC12831199.

The chains behind the UniProt entries cited, without tags or fusion partners. Where a name states a change or a piece, a line headed by the entry shows the natural chain unless it says otherwise. Residues count along the entry.
UniProt P23201: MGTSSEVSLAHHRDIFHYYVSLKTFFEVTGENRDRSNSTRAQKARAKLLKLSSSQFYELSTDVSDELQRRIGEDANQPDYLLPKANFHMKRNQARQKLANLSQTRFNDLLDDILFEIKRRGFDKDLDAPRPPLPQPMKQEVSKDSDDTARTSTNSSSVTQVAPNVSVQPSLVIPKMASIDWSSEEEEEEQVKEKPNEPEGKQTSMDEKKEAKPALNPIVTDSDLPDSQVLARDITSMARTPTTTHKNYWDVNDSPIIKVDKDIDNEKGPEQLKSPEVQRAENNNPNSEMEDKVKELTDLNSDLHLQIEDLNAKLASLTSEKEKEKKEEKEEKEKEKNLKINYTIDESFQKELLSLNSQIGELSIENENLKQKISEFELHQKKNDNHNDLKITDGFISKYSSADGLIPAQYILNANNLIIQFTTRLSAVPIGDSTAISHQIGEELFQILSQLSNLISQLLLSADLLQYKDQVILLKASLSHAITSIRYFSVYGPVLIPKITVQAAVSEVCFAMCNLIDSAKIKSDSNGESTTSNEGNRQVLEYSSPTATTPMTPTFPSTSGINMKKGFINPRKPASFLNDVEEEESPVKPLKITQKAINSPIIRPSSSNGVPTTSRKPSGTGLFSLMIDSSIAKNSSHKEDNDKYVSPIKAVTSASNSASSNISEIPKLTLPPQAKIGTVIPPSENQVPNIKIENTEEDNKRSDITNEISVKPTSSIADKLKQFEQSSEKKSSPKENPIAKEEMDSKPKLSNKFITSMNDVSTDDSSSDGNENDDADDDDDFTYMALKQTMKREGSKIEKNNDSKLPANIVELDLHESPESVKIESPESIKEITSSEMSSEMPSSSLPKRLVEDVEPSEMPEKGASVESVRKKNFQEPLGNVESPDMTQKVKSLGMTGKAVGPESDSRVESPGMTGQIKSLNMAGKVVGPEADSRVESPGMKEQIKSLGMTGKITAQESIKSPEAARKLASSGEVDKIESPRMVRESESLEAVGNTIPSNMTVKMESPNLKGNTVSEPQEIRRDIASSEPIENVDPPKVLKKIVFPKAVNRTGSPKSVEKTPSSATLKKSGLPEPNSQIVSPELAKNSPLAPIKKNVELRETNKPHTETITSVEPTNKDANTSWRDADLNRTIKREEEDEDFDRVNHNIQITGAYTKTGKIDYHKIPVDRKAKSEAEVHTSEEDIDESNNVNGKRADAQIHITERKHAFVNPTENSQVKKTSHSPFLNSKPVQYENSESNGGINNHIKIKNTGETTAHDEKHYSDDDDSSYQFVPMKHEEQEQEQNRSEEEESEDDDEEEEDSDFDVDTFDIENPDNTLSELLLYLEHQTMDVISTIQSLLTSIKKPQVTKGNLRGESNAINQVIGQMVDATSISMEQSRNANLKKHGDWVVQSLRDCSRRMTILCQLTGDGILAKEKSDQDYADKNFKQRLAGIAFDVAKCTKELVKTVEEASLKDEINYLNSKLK
SHD1CRU: residues 1-124 of P23201
UniProt P43597: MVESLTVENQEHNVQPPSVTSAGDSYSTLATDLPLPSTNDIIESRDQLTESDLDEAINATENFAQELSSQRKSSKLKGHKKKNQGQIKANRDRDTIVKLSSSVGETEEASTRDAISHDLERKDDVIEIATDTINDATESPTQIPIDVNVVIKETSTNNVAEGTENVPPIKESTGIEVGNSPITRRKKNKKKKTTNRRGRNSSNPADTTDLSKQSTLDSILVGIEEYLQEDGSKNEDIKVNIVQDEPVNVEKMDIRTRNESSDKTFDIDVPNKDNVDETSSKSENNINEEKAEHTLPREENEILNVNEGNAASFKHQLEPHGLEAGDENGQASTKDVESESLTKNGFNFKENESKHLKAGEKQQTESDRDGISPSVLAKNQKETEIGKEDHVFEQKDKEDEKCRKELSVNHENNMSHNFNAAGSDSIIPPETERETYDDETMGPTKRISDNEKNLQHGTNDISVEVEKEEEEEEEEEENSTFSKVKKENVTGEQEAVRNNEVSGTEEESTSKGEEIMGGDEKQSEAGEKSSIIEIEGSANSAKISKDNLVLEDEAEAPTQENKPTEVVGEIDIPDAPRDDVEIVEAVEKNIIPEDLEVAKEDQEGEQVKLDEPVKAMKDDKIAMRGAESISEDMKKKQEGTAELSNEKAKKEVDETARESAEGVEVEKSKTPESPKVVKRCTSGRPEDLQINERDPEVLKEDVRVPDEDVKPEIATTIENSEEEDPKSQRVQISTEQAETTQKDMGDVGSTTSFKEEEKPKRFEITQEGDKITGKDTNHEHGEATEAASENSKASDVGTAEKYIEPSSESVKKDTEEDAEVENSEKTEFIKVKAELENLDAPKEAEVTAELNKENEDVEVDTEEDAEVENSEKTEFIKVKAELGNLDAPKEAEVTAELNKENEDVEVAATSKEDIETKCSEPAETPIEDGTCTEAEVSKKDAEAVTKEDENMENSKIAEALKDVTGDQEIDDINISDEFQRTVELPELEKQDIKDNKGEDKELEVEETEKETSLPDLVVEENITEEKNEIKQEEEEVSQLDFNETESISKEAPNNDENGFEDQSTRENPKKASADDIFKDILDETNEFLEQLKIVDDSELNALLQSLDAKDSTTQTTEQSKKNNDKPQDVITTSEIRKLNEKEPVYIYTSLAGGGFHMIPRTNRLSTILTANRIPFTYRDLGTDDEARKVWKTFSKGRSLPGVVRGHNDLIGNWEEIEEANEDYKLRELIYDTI

Substitutions are numbered along the chain they refer to. Names may count otherwise. Results are given in words; binding and its absence hold for the method and conditions named. In cells and extracts the contact can be indirect. Some binding calls cover weakened binding; strength is not graded here. For part of these data: Tags and fused reporters may be left off the sequences shown.

Assay [1] deals with full-length Spa2CRU (Saccharomyces cerevisiae) (UniProt P23201). The assay can be described thus: split reporter; foldback competition assay with full-length Spa2CRU extended at its N-terminus, Split-Ub as in Fig. 1E (transformants transferred onto 5-FOA medium) (Fig. 3B).
Assay [2] concerns the target Msb4_(22-81)–Spa2CRU (Saccharomyces cerevisiae) (UniProt Q12317+P23201). The description is as above.
Assay [3] addresses SHD1CRU (Saccharomyces cerevisiae) (UniProt P23201). The assay can be described thus: split reporter; foldback competition assay, Split-Ub spotted as in Fig. 1C: SHD1CRU extended at its N-terminus by an FRM-containing stretch that occupies the pocket intramolecularly; loss of the Nub–Msb3 signal on 5-FOA is read as binding of the stretch (Fig. 3C, 7C).
The target is the same in assay [4]. The assay can be described thus: split reporter; small-scale Split-Ub: diploid cells co-expressing a Nub and a CRU fusion spotted in 10-fold serial dilutions from OD600=1 on SD medium with 5-FOA, 30°C, 2-5 days.
Assay [5] has as its target T1, Msb4CRU (Saccharomyces cerevisiae) (UniProt Q12317).
T1 sequence: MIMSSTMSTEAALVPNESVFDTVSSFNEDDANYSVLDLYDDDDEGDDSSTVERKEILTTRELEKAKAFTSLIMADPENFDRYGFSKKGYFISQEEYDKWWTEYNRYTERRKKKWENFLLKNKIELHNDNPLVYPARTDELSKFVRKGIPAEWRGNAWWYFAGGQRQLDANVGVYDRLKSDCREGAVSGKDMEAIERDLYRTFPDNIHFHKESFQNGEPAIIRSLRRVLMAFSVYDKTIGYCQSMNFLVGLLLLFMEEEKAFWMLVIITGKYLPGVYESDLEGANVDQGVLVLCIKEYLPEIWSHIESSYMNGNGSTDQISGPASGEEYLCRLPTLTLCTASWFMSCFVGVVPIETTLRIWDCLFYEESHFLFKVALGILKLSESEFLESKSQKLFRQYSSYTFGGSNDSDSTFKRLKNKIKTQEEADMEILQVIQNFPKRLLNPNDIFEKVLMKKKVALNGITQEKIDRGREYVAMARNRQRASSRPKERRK
The assay can be described thus: split reporter; Split-Ub: four independent transformants each, directly transferred from selective medium onto 5-FOA medium (Fig. 1E).

Assay [6] deals with T2, Msb3CRU (Saccharomyces cerevisiae) (UniProt P48566).
T2 sequence: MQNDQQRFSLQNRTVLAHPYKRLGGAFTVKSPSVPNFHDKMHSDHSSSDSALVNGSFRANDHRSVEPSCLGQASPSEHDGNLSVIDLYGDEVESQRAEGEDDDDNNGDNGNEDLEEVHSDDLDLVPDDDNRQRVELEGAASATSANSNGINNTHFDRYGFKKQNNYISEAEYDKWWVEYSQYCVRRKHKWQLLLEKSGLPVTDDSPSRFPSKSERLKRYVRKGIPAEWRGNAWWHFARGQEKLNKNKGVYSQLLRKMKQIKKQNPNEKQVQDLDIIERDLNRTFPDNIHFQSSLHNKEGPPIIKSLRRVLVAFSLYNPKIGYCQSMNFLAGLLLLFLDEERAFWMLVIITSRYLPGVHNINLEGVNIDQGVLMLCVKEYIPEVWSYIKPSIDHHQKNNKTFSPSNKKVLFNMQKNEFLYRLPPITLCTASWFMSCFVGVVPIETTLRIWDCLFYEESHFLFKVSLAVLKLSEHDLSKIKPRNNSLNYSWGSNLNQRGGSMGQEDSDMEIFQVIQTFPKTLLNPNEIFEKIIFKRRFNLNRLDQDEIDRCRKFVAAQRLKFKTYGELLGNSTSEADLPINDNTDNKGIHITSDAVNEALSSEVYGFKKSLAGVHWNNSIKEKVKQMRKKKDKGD
The description is as above.

Turning to “Nub fusion of Aip5 (from UniProt P43597 1-1233)”, the binding entry in assay [1] and in assay [2] was “binds” each time.

B1: Dse3_(181-240) (domain or fragment, UniProt Q08729 181-240)
chain: SLMQTQTQDCCRKNKYGKSGSEILFDEILSAYENVSTSDSTALNSEIDRIIDICASKQIA
Turning to B1, in assay [3], the binding entry is given as “binds”.

B2: Nub–Msb4_(21-50) (peptide, UniProt Q12317 21-50)
chain: DTVSSFNEDDANYSVLDLYDDDDEGDDSST
With B2, the binding result in assay [4] is given as “binds”.

B3: Nub–Msb3_(71-100) (peptide, UniProt P48566 71-100)
chain: GQASPSEHDGNLSVIDLYGDEVESQRAEGE
Consider B3, for which the binding entry in assay [4] is recorded as “binds”.

B4: Nub–Msb4_(Δ35-39) (protein, UniProt Q12317)
chain: MIMSSTMSTEAALVPNESVFDTVSSFNEDDANYSDDDDEGDDSSTVERKEILTTRELEKAKAFTSLIMADPENFDRYGFSKKGYFISQEEYDKWWTEYNRYTERRKKKWENFLLKNKIELHNDNPLVYPARTDELSKFVRKGIPAEWRGNAWWYFAGGQRQLDANVGVYDRLKSDCREGAVSGKDMEAIERDLYRTFPDNIHFHKESFQNGEPAIIRSLRRVLMAFSVYDKTIGYCQSMNFLVGLLLLFMEEEKAFWMLVIITGKYLPGVYESDLEGANVDQGVLVLCIKEYLPEIWSHIESSYMNGNGSTDQISGPASGEEYLCRLPTLTLCTASWFMSCFVGVVPIETTLRIWDCLFYEESHFLFKVALGILKLSESEFLESKSQKLFRQYSSYTFGGSNDSDSTFKRLKNKIKTQEEADMEILQVIQNFPKRLLNPNDIFEKVLMKKKVALNGITQEKIDRGREYVAMARNRQRASSRPKERRK
On to B4, for which the binding entry in assay [4] is reported as “no binding”.

B5: Nub–Pea2 (protein, UniProt P40091 1-420)
chain: MHKFDLELSRRANPLLFSAERYEEYPLKYDELKQYLLSQNPSHPHHNSRPYTSIDYFDYLLYRSKNDESEIDLDKKLVSEFALYYVQKEHLNSDDLNPTLNELLKLQPKSADWYEMMLRILESINTTGIDQLTKENNNSFPNSKRARSSTNMGGTDKFNKGAYHTDKADDDKNEILQELTSFLMSNSIQKGIDIKPIPLDDPVKFLKNGINSILDTCVSLEKNTSSPPISPNAAAIQEEDSSKKLEELETAFSDLQLAHNFLTKQFENDRAEYVQDIEKLTRTNRELQDKLLNNHSNLSKTEKKLHELEQENKELEKANNKLNSSRHNFGMSSPASSPVTWDPSSPSSVGSPTSGSGSRSLSIMTSEFKKVLTSTQRKYEKELSDEREHRFKLERELALLKNAEANTSLALNRDDPPDML
As to B5, the binding result in assay [1], in assay [2], in assay [5] and in assay [6] was “binds” in each case.

B6: Nub–Ste7_(100-135) (peptide, UniProt P06784 100-135)
chain: SSLSQSPCVSSSSSLSTPCIIDAYSNNFGLSPSSTN
Regarding B6, in assay [4], the binding entry is reported as “no binding”.

B7: Nub–Msb3_(D86A) (protein, UniProt P48566 1-633)
chain: T2 sequence with D86A
Take B7: the binding result in assay [4] is listed as “binds”.

B8: Nub–Msb3_(L87A) (protein, UniProt P48566 1-633)
chain: T2 sequence with L87A
Regarding B8, the binding entry in assay [4] is “binds”.

B9: Nub–Msb3_(Y88A) (protein, UniProt P48566 1-633)
chain: T2 sequence with Y88A
As to B9, in assay [4], the binding result was “no binding”.

B10: Nub–Msb3_(L82Y) (protein, UniProt P48566 1-633)
chain: T2 sequence with L82Y
With B10, the binding entry in assay [4] is on record as “binds”.

B11: Nub–Msb3_(V84A) (protein, UniProt P48566 1-633)
chain: T2 sequence with V84A
Regarding B11, the binding entry in assay [4] is “no binding”.

B12: Nub–Msb3_(I85A) (protein, UniProt P48566 1-633)
chain: T2 sequence with I85A
Consider B12, for which the binding entry in assay [4] is given as “no binding”.

B13: Nub–Msb3_(Δ84-88) (protein, UniProt P48566)
chain: MQNDQQRFSLQNRTVLAHPYKRLGGAFTVKSPSVPNFHDKMHSDHSSSDSALVNGSFRANDHRSVEPSCLGQASPSEHDGNLSGDEVESQRAEGEDDDDNNGDNGNEDLEEVHSDDLDLVPDDDNRQRVELEGAASATSANSNGINNTHFDRYGFKKQNNYISEAEYDKWWVEYSQYCVRRKHKWQLLLEKSGLPVTDDSPSRFPSKSERLKRYVRKGIPAEWRGNAWWHFARGQEKLNKNKGVYSQLLRKMKQIKKQNPNEKQVQDLDIIERDLNRTFPDNIHFQSSLHNKEGPPIIKSLRRVLVAFSLYNPKIGYCQSMNFLAGLLLLFLDEERAFWMLVIITSRYLPGVHNINLEGVNIDQGVLMLCVKEYIPEVWSYIKPSIDHHQKNNKTFSPSNKKVLFNMQKNEFLYRLPPITLCTASWFMSCFVGVVPIETTLRIWDCLFYEESHFLFKVSLAVLKLSEHDLSKIKPRNNSLNYSWGSNLNQRGGSMGQEDSDMEIFQVIQTFPKTLLNPNEIFEKIIFKRRFNLNRLDQDEIDRCRKFVAAQRLKFKTYGELLGNSTSEADLPINDNTDNKGIHITSDAVNEALSSEVYGFKKSLAGVHWNNSIKEKVKQMRKKKDKGD
Turning to B13, in assay [4], the binding entry is on record as “no binding”.
